Experimental data taken from the supplement of paper PMC10126150.
Values marked as one replicate rest on one cluster of the flow cell; about a third of the high ones do not repeat.

System: ATP
Test: switch fluorescence ratio, 500 uM ATP over buffer (Cy3 cluster intensity, sum of 5 cycles each) (fold (ratio)); higher = stronger signal-on switching upon ATP binding; sequences stand for … in TCGTCGGCAGCGTCAGATGTGTATAAGAGACAGTTTTTTTTTTTTTTTTTTTTTTTTT…TC
Conditions: aptamer strand: ATP DNA aptamer (quencher-CACCTGGGGGAGTATTGCGGAGGAAGG + anchor), 100 nM annealed; ATP concentration: 500 uM; one replicate
Outline: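 Cy3-labelled switching-strand clusters on a modified Illumina MiSeq flow-cell were annealed to 100 nM quencher-labelled ATP aptamer, imaged in selection buffer, then imaged after 15 min with 500 uM ATP at 22 °C. Five buffer/ATP cycles ran, with NaOH stripping and re-annealing between them. The fluorescence ratio is summed target-cycle over summed buffer-cycle Cy3 intensity per cluster, averaged per switch-domain sequence. Clusters outside 100-1000 RFU were excluded.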
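Further: ATP exposure 15 min at 22 °C before imaging.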

Sequence | switch fluorescence ratio
AAGTAATTAT | 1.03
TTTCAGTGT | 1.05
CGCACCCCGG | 2.13
AACCGCAGGT | 0.96
CGGGCATAGT | 0.95
CTGATTTTCG | 1.04
ATGACGCCT | 0.951
AAGCGCTTT | 1.01
GCGATAGGGT | 1.01
ATATCATGGA | 1.01
GTGGCAATTT | 1.09
CATGGACAGT | 1.02
ACGTGGAGTC | 1
TCACCTTGTC | 1.1
GATTCTCTGA | 0.991
GAGGTCGCCC | 0.992
TAAGCAGTTC | 1.38
TCACTTTCTA | 1.04
TCTCTCCGTA | 1.61
TCTATCGTCA | 1.04
TATCTCAGGA | 0.997
GGTCTAATTT | 0.955
GGGCTCGCAC | 1.14

Sequence | switch fluorescence ratio
ACGATTTTC | 1.04
AATACTAGTA | 0.992
GTGCAAGGGA | 1.01
ACACGGTGTT | 1.03
TACACAAAGG | 1.02
GTAGTCAATG | 1.21
TGCGCAGCTA | 1.03
GACTTTTGCG | 0.992
TGACCGGAAA | 0.998
CACCCGGGGC | 1.39
TCCTTCTTGG | 1.56
CGATTGGACC | 1.09
CGCTGGAGTC | 1.03
TTCATTTGAT | 0.952
CTTACCATGT | 0.964
CTGGAAATAT | 1
CTGGGAAGCC | 0.962
ATCGCGAACT | 1.03
GCCAAGGGAG | 1.01
TTTATACCGG | 1.03
TAAACAGTTG | 1.02
TTGCCACAA | 1.39
TTGGTTGGTA | 0.994

Sequence | switch fluorescence ratio
TAGTGAAGG | 0.974
TATTGCCGGA | 1.19
AAGTCAATCG | 1.07
AGAGAATCTG | 1.06
TACAATGTGC | 0.972
ATTTGGCATG | 1
AACTAGAAGC | 0.997
CAAGGTACAG | 1.08
TTTGATGAAT | 1.01
CTAACTCGTT | 0.975
AACGCGAGTG | 0.95
GGGACAGGAT | 1.01
ACTCATCCGA | 1.16
GTCGTAGACA | 1.01
GCCGCACGGC | 1.05
TTGCGAGCAG | 1.04
ATGTAGTTGC | 1.02
GAAACTCA | 1.01
CCGCGAATGT | 4.5
GTGATATTCA | 0.983
GGAGGAAGGA | 1.04
GGGCCTATGA | 0.998
CGTTACTCTG | 1.11

Sequence | switch fluorescence ratio
CCACAAGATT | 1.09
TAAATTGCT | 1.02
GGTTACACCG | 1.02
TAAATGGCTG | 0.998
TTACTGTTGC | 1.01
GCTGGAAGG | 1.02
AGGGGGCCCA | 1.02
ATCTGCAGGG | 0.974
CCTCTTATGA | 1.2
GTACAAAACG | 1.22
CCCCTTGGGC | 1.04
TCCTGAGTGG | 0.952
GTATTCGGCC | 0.989
TGCGAGTGAT | 1.03
GAACCACGGA | 1.04
AGAGTACTTT | 0.997
TACTTTGTCG | 1.07
GTTTGTACAG | 0.971
ACATGGTTG | 1.04
TGAGGGTATT | 0.985
TTAGGAT | 0.98
TCACATGCTA | 1.02
TTGACCACCG | 1.06

Sequence | switch fluorescence ratio
GGGCCGCGTC | 2
ATGGCGATTA | 0.964
GTCACACGGA | 1
AGTTGAAATC | 0.986
TTACTGCTTC | 0.969
GTTCTAGCTT | 0.996
CTGACATTCA | 1.05
TGTTTACGA | 1.01
TAAGGTCAAC | 0.948
GACCTATCAA | 1.01
ACACTATTAC | 1.19
GTCATTCGA | 0.979
ATCAAACCCC | 1.17
CTTCACAACC | 1.25
GATCTGCAGC | 1.23
TCTGTATTAG | 1.04
TTGGTAATAA | 1.05
GGTCTCTTTT | 1.01
TTCGGTTAGG | 1.01
GCGGTACGT | 0.993
AAGAACCCAT | 1.04
CAGTGCCGAG | 0.995
CTGTTTGAGT | 0.971

Sequence | switch fluorescence ratio
AGTTTCTATG | 1.04
ATATTTCTAT | 0.979
TGCTTTTGAC | 1.06
AAGATGATGC | 1.02
TCTAACAGGG | 1.11
GCTCCACTC | 1.57
CAAAATGGCC | 1.06
ATGGAACTAC | 1.11
GTGAATGTCT | 0.994
ATCAGTACTT | 0.967
CCATGTGCGG | 1.02
TATACTGTTT | 0.962
GTCGGGAGGG | 0.988
TAGGGACATT | 1.03
TAAGTGGAGC | 1.01
TTTGATGGA | 1.02
GAGAATAAGA | 1.02
GACAGCATTT | 1.11
CGAAGAAAGA | 1.01
CGGGCGAGGC | 0.993
ACCGGCTCGC | 1.29
TATAGATCTG | 1.01
GCAGCCTTGG | 0.971

Sequence | switch fluorescence ratio
TACGAGTAGG | 1.01
ATAACACAGC | 1.06
CCGAACGGGT | 1.25
ATGGGGTCCG | 0.971
TGTGGGTCTT | 0.982
TTACCTTTGA | 1.02
ATGGTCTGTG | 0.958
TTAGGTTA | 0.981
TTATGGGATC | 1.05
TGCTAATGCT | 1
ATTGGTCGTG | 1.06
AGATGCTAAT | 1
CTGGGAATGA | 1.02
GCTATACCCG | 1.08
CGGCACACGG | 0.992
TATAGTTTTC | 1.02
AATTGCTATG | 1
GGTAGAAACA | 0.996
ATCGCCATGG | 1.04
